The shares of active, inactive and inconclusive entries below differ from those in the screen. Where the call is inconclusive, the potency comes from a doubtful curve fit. The source made the active and inactive calls. Calls follow the shape of the dose curve; as a rule, active = well fitted curve in the direction sought with a large enough effect; inconclusive = small, poorly fitted or top-dose-only effect, or another doubt; inactive = no such curve, though single readings can be large; an effect the other way counts as inactive or inconclusive.
What was measured:
[1] = BET inhibitor-based combinations targeting novel dependencies in MECOM-rearranged (r) AML: HNT-34 cell line (AID 2202234); also: nearly all actives have a fitted effect of over 35% in size
Outline: (§1)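 Each compound is tested in an 11-point concentration series against 500 seeded cells/well for 48 hr. The luminescent viability signal is normalized to DMSO and blank wells, then reduced to AUC and a cell-line-centred Z-AUC.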

[2] = BET inhibitor-based combinations targeting novel dependencies in MECOM-rearranged (r) AML: AML-194 cell line (AID 2202237; also: nearly all actives have a fitted effect of over 40% in size)
Outline: (§2)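 A 48 hr incubation preceded viability reading by CellTiter-Glo, with 15 min room-temperature development. Dose series had 11 points; normalization used DMSO and empty wells; AUC was computed and mean-centered per line as Z-AUC.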

[3] = BET inhibitor-based combinations targeting novel dependencies in MECOM-rearranged (r) AML: UCSD-AML1 cell line (AID 2202235); details: UCSD-AML1 AML cells viability, CellTiter-Glo, 48 h; series mostly up to 46 µM; also: nearly all actives have a fitted effect of over 40% in size
Outline: as §1

[4] = BET inhibitor-based combinations targeting novel dependencies in MECOM-rearranged (r) AML: AML-191 cell line (AID 2202236; also: nearly all actives have a fitted effect of over 35% in size)
Outline: as §2
Potency is read from the fitted curve at half-maximal effect; tags tell the direction and shape of the fitted curve.

In the case of `NC1CCCN(c2c(/C=C3\SC(=O)NC3=O)cccc2-c2ccccc2)C1` (stereo unspecified), the Potency [1] is reported as inconclusive: 0.742 µM [inhibitor, full curve] and the Potency [2] is reported as inconclusive: 0.833 µM [inhibitor, full curve].

In the case of `CN(C)C[C@@H]1CCn2cc(c3ccccc32)C2=C(C(=O)NC2=O)c2cn(c3ccccc23)CCO1`, the Potency [1] is reported as inconclusive: 16.6 µM [inhibitor, partial curve] and the Potency [2] is reported as active: 5.9 µM.

For `CC1(C)O[C@@H]2C[C@H]3[C@@H]4C[C@H](F)C5=CC(=O)C=C[C@]5(C)[C@@]4(F)[C@@H](O)C[C@]3(C)[C@]2(C(=O)CO)O1`, the Potency [1] was “inactive” and the Potency [2] was “inactive”.

For `CCN1CCN(CC(=O)Nc2ccc(-c3cccc4c(=O)cc(N5CCOCC5)oc34)c3sc4ccccc4c23)CC1`, the Potency [1] was active: 5.74 µM and the Potency [2] was active: 3.23 µM.

With `Cc1c[nH]c2nc(Nc3ccc(N4CCN(C)CC4)c(F)c3)nc(-c3cccc(CC#N)c3)c12` the Potency [3] was active: 0.742 µM.

With `Cc1c(C(=O)NN2CCCCC2)nn(-c2ccc(Cl)cc2Cl)c1-c1ccc(Cl)cc1` the Potency [1] was inconclusive: 26.3 µM [inhibitor, single point], the Potency [4] was inconclusive: 29.5 µM [inhibitor, single point] and the Potency [2] was inconclusive: 18.6 µM [inhibitor, partial curve, poor fit].

For `CC(C)NC(=O)C1CCC(n2c(NC(=O)c3ccc(F)cc3)nc3ccc(CN4CCC(C(C)(C)O)CC4)cc32)CC1` (stereo unspecified), the Potency [1] was inconclusive: 12.9 µM [inhibitor, partial curve], the Potency [4] was inconclusive: 0.574 µM [inhibitor, full curve] and the Potency [2] was inconclusive: 1.44 µM [inhibitor, full curve].

For `O=C(O)/C(S)=C/c1ccc(I)cc1`, the Potency [1] was “inactive” and the Potency [2] was “inactive”.

In the case of `CCn1c(-c2nonc2N)nc2cncc(CNC3CCNCC3)c21`, the Potency [3] is reported as active: 5.9 µM.

With `Cc1c(NC(=O)c2cc(C(N)=O)nc3cc(F)ccc23)c(C(F)(F)F)nn1Cc1ccc(C(C)(C)C)cc1` the Potency [1] was inconclusive: 33.2 µM [inhibitor, single point], the Potency [4] was active: 16.6 µM and the Potency [2] was inconclusive: 29.5 µM [inhibitor, single point].

For `COc1ccc(N(C)c2nc(C)nc3ccccc23)cc1`, the Potency [1] was inconclusive: 0.0118 µM [inhibitor, full curve] and the Potency [2] was active: 0.0105 µM.

For `CN1CCN(c2cc(C(=O)Nc3ccc4c(c3)-c3c(c(C(N)=O)nn3-c3ccc(F)cc3)CC4)c(Cl)cn2)CC1`, the Potency [3] was inconclusive: 9.34 µM [inhibitor, single point].

In the case of `COC(=O)Nc1nc2ccc(Sc3ccccc3)cc2[nH]1`, the Potency [1] is reported as active: 0.525 µM and the Potency [2] is reported as active: 0.417 µM.

In the case of `COc1ccc(S(=O)(=O)Nc2cc(-c3csc(C#N)c3)ccc2C)cc1`, the Potency [1] is reported as inconclusive: 0.118 µM [inhibitor, full curve] and the Potency [2] is reported as active: 0.332 µM.

With `N=c1ccn2c(n1)O[C@H]1[C@@H](O)[C@@H](CO)O[C@H]12` the Potency [1] was active: 0.235 µM and the Potency [2] was active: 0.118 µM.

In the case of `Cc1cccc(-c2[nH]ncc2-c2ccc3ncccc3n2)n1`, the Potency [3] is reported as inconclusive: 23.5 µM [inhibitor, single point].

For `COC1CCC(N(C(=O)C2CCC(C)CC2)c2cc(C3=CCCCC3)sc2C(=O)O)CC1` (stereo unspecified), the Potency [3] was “inactive”.

In the case of `NC(=O)Nc1sc(-c2ccc(F)cc2)cc1C(N)=O`, the Potency [1] is reported as active: 1.66 µM and the Potency [2] is reported as inconclusive: 2.95 µM [inhibitor, full curve].

For `CCCCCCCOc1ccc(CCC(N)(CO)CO)cc1C(F)(F)F`, the Potency [3] was active: 10.5 µM.

With `COc1c(C)c2c(c(O)c1C/C=C(\C)CCC(=O)OCCN1CCOCC1)C(=O)OC2` the Potency [1] was inconclusive: 1.66 µM [inhibitor, full curve] and the Potency [2] was inconclusive: 1.48 µM [inhibitor, full curve].

With `C[C@]12C=CC(=O)C=C1CC[C@@H]1[C@@H]2C(=O)C[C@@]2(C)[C@H]1CC[C@]2(O)C(=O)CO` the Potency [3] was inconclusive: 33.2 µM [inhibitor, single point].

In the case of `NS(=O)(=O)c1cc2c(cc1Cl)NC=NS2(=O)=O`, the Potency [3] is reported as “inactive”.

For `COc1cc(OC)cc(N2CCN(C(=O)Nc3nc4cc(F)ccc4nc3OC)CC2)c1`, the Potency [3] was inconclusive: 0.105 µM [inhibitor, full curve, poor fit].

In the case of `CCC(=O)OCC(=O)C1(OC(=O)CC)C(C)CC2C3CCC4=CC(=O)C=CC4(C)C3(F)C(O)CC21C` (stereo unspecified), the Potency [3] is reported as “inactive”.

In the case of `O=C(Nc1cc(C(F)(F)F)cc(C(F)(F)F)c1)c1cc(Cl)ccc1O`, the Potency [3] is reported as active: 1.66 µM.

With `Cc1ccc(C(=O)OCc2ccc([C@@H](CN)C(=O)Nc3ccc4cnccc4c3)cc2)c(C)c1` the Potency [3] was active: 14.4 µM.

For `C/C=C/C(=O)N(CC)c1ccccc1C`, the Potency [1] was “inactive” and the Potency [2] was “inactive”.

In the case of `O=C(NCc1cccc(O)c1)Nc1nc(-c2ccncc2)cs1`, the Potency [1] is reported as inconclusive: 0.59 µM [inhibitor, full curve], the Potency [4] is reported as inconclusive: 4.68 µM [inhibitor, partial curve] and the Potency [2] is reported as inconclusive: 16.6 µM [inhibitor, partial curve].

For `CC(N)C12CC3CC(CC(C3)C1)C2` (stereo unspecified), the Potency [1] was “inactive” and the Potency [2] was “inactive”.

With `COc1ccc(S(=O)(=O)N(C(C)=O)c2ccccc2/C=C/c2cc[n+]([O-])cc2)cc1` the Potency [1] was inconclusive: 1.18 µM [inhibitor, full curve] and the Potency [2] was active: 0.833 µM.

In the case of `Cc1ccc(C(=O)Nc2cccc(C(F)(F)F)c2)cc1Nc1nc(-c2cccnc2)nc2c1cnn2C`, the Potency [3] is reported as inconclusive: 10.5 µM [inhibitor, single point].

In the case of `N[C@@H](Cc1cc(I)c(Oc2cc(I)c(O)c(I)c2)c(I)c1)C(=O)O`, the Potency [3] is reported as “inactive”.

With `N#Cc1cccnc1N1CCN(C(=O)c2cccc(Cc3n[nH]c(=O)c4ccccc34)c2)CC1` the Potency [3] was active: 0.0833 µM.

With `COc1ccc2c3n(c(=NC(=O)c4cccnc4)nc2c1OC)CCN3` the Potency [1] was active: 0.332 µM and the Potency [2] was active: 1.18 µM.

For `O=C([C@@H](Cc1cccc(C(F)(F)F)c1)NS(=O)(=O)c1cc(F)c2c(c1)CCNC2)N1CCCC1`, the Potency [1] was inconclusive: 29.5 µM [inhibitor, partial curve, poor fit], the Potency [4] was “inactive” and the Potency [2] was “inactive”.

In the case of `O=C(Nc1cc(Cl)cc2c1[nH]c1cnccc12)c1cccnc1`, the Potency [1] is reported as inconclusive: 16.2 µM [inhibitor, single point] and the Potency [2] is reported as “inactive”.

For `Cc1nc2cnc3ccc(C#Cc4cccnc4)cc3c2n1-c1ccc(C(C)(C)C#N)cc1`, the Potency [3] was active: 0.296 µM.

With `CCC(CC)CC1(C(=O)Nc2ccccc2SC(=O)C(C)C)CCCCC1` the Potency [3] was “inactive”.

With `CC(C)(Cc1ccc2ccccc2c1)NC[C@@H](O)COc1cccc(Cl)c1C#N` the Potency [3] was inconclusive: 11.8 µM [inhibitor, single point].

With `CC(C)n1c(=O)cc(N[C@@H](C)c2ccccc2)[nH]c1=O` the Potency [1] was inconclusive: 33.2 µM [inhibitor, partial curve, poor fit] and the Potency [2] was inconclusive: 33.2 µM [inhibitor, single point].

In the case of `CN[C@@H]1CN(c2ccc3c(=O)c(C(=O)O)cn(-c4nccs4)c3n2)C[C@@H]1OC`, the Potency [3] is reported as inconclusive: 0.0162 µM [inhibitor, full curve, poor fit] and the Potency [2] is reported as active: 1.29 µM.

In the case of `COc1cc(-c2cc(-c3ccc(N4CCNCC4)cc3)cnc2C)cc(OC)c1OC`, the Potency [3] is reported as inconclusive: 29.5 µM [inhibitor, single point], the Potency [4] is reported as inconclusive: 13.2 µM [inhibitor, partial curve] and the Potency [2] is reported as inconclusive: 14.8 µM [inhibitor, partial curve].

In the case of `CN(CCO)C1CCN(c2ccc(Nc3ncc4c5ccnc(F)c5n(C5CCCC5)c4n3)nc2)CC1`, the Potency [3] is reported as inconclusive: 0.407 µM [inhibitor, full curve] and the Potency [4] is reported as inconclusive: 0.456 µM [inhibitor, full curve].

In the case of `CN1C(=O)N[C@@H](Cc2c[nH]c3c(Cl)cccc23)C1=O`, the Potency [4] is reported as “inactive”.

In the case of `COc1ccc(CCN(C)CCCOc2ccc(S(=O)(=O)c3[nH]c4ccccc4c3C(C)C)cc2)cc1OC`, the Potency [3] is reported as active: 14.8 µM, the Potency [4] is reported as active: 18.6 µM and the Potency [2] is reported as active: 14.8 µM.

In the case of `Nc1cccc2c1C(=O)N(C1CCC(=O)NC1=O)C2=O` (stereo unspecified), the Potency [3] is reported as “inactive” and the Potency [4] is reported as “inactive”.

For `Nc1ccc(/C=C/C(=O)NCc2cc3cc(-c4ccc(C(=O)N5CCC(F)(F)CC5)cc4)cc(-c4ccc(F)cc4)c3o2)cn1`, the Potency [3] was active: 1.18 µM and the Potency [4] was inconclusive: 0.59 µM [inhibitor, full curve].

For `Cc1ccc(-n2[nH]c(C)c(N=Nc3cccc(-c4cccc(C(=O)O)c4)c3O)c2=O)cc1C`, the Potency [3] was “inactive”, the Potency [4] was inconclusive: 23.5 µM [inhibitor, single point] and the Potency [2] was “inactive”.

With `C=CC(=O)Nc1cccc(Oc2nc(Nc3ccc(N4CCN(C)CC4)c(F)c3)nc3[nH]ccc23)c1` the Potency [3] was active: 4.68 µM, the Potency [4] was active: 5.9 µM and the Potency [2] was active: 6.61 µM.

With `N#Cc1ccnc(N2C(=O)CC[C@H]2C(=O)N(c2cncc(F)c2)[C@H](C(=O)NC2CC(F)(F)C2)c2ccccc2Cl)c1` the Potency [3] was inconclusive: 37.2 µM [inhibitor, single point] and the Potency [4] was inconclusive: 23.5 µM [inhibitor, partial curve, poor fit].

With `O=c1cc(N2CCOCC2)oc2c(-c3cccc4c3sc3ccccc34)cccc12` the Potency [3] was inconclusive: 7.42 µM [inhibitor, full curve] and the Potency [2] was inconclusive: 5.9 µM [inhibitor, full curve].

In the case of `C[C@@H](NCc1cc2ccccc2[nH]1)c1cccc2ccccc12`, the Potency [3] is reported as inconclusive: 4.68 µM [inhibitor, full curve, poor fit] and the Potency [2] is reported as active: 8.33 µM.

With `Cc1[nH]c(/C=C2\C(=O)Nc3ccc(S(=O)(=O)N(C)c4cccc(Cl)c4)cc32)c(C)c1C(=O)N1CCN(C)CC1` the Potency [3] was inconclusive: 1.18 µM [inhibitor, full curve, poor fit] and the Potency [4] was active: 7.42 µM.

Source: PubChem BioAssay (NCATS)
